± gives the standard deviation of the averaged measurements. The list shows a part of the results.
tested on: PfAP2-EXP AP2 domain (GST-tagged); test: gcPBM binding intensity (ln(normalized median fluorescence intensity)); higher = stronger DNA binding
Procedure, shortened: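 Probes on an Agilent 4 × 180k array were primer-extended, double-stranded and 36 bp long, taken from intergenic genomic regions, with negative controls added. GST-tagged P. falciparum DNA-binding domains from E. coli, about 25 μg on average, were applied to the array for 1 h in 1× PBS containing 1% milk, 0.2 mg/ml BSA, 0.5% salmon testes DNA and 0.03% Triton X-100. Binding intensity, obtained after Alexa488 anti-GST antibody detection and a 488 nm scan, is the highest Masliner-normalised natural-log median intensity across replicate spots of either probe orientation.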

Sequence	gcPBM binding intensity (ln)
ATTAAATGATTCATATGTACATAAATAAATAAATAT [XGTACX_site2249]	8.79 ± 0.47
TATTAATATTTACACACATGCGCACACATAAATAAA [TGCATGCA_site609]	8.88 ± 0.36
TTTCTTTTTAAAGTGTATTAAAATTGAATAAAAAGA [XGTACX_negctrl_site408]	8.38 ± 0.34
TTTTTTTTTTTTGTCACACACCTTCATAAGAAAAAA [CACACA_site4779]	8.7 ± 0.45
ATCATCACATAAGAAAATAGATAAAAAAAAAAAAAT [XGTACX_negctrl_site589]	8.35 ± 0.5
ATGAAAAAACATAATTGTACAAAAGTTGGATTCGAT [XGTACX_site7732]	9.51 ± 0.49
GTACAGATATTGTACATACACACCTATATAAATATC [CACACA_site5739]	8.65 ± 0.48
TAAATCCGCAGGCACACACACATATTAAGAAAAAAA [CACACA_site6061]	8.46 ± 0.63
GAACAAAATGATAGAAGTACAAATATTTATTTTGTT [XGTACX_site7146]	8.78 ± 0.48
TGGGAACAATATATTTGTACTTAAATAAATAAAAAA [XGTACX_site6762]	8.43 ± 0.44
AAAGAGAAACAAAATTGTACATTATATTGTAGACGT [XGTACX_site976]	8.79 ± 0.4
TATATTTATAAGTGTACACATTATATAAATCCCTAT [CACACA_site6122]	8.62 ± 0.18
AAAAAAAGGAAATTTACACACACATATAATATACAT [CACACA_site3297]	8.73 ± 0.5
ATTTCCTTGAATGTTGCATGCTGTATTTTAATTAAA [TGCATGCA_site280]	9.88 ± 0.43
AAAAAAAAAAAGTGCACACATAAAAATATGATCTAA [CACACA_site572]	8.88 ± 0.13
TAAATTTTTCTAAGTGCATGTTAATTTTTCAATTTA [TGCATGCA_site906]	8.56 ± 0.16
TAGATTATTATACTAGTGCAAATTATTTAAGAAAAA	8.44 ± 0.13
TTTAAAAAGTTATGAAGTACATATATATATATATAT [XGTACX_site2188]	10.2 ± 0.29
ATATTATTTATAAAAGTGCAAAAATCACTTCTTTTA [GTGCAC_site9656]	8.27 ± 0.18
AATATATCAAAAATGATGACATAAATATATTAATTT [GTGCAC_negctrl_site530]	8.22 ± 0.45
TAATATCGTATATGAGTGCAATATTTTAGATTTTGA	8.295 ± 0.035
AAAAAAAGGTAAAATTGTACATACGCACAAAAATAT [XGTACX_site2887]	8.73 ± 0.33
TGCACGCACAGACACACACACAACTAAAAAATAATG [CACACA_site7250]	8.865 ± 0.064

Sequence	gcPBM binding intensity (ln)
ATTTTCTTTTTTAAACGTACACATATTAAATATATA [XGTACX_site7773]	8.86 ± 0.41
TTTTTATTCCAGTATTCACACACGAATAACCACATA [CACACA_site1897]	8.49 ± 0.34
AATAAATTCATGAATTGTACGTAATGATAACATGAA [XGTACX_site2591]	8.89 ± 0.38
TTATAACTTTTCACAAGTACATATATATATGTATAA [XGTACX_site2306]	8.45 ± 0.35
TTTGGAAAGCGTGATTTTTGACAAACACAAAAAAAA [CACACA_negctrl_site651]	8.43 ± 0.47
ATATATATGTTTTTATGTACATATTTTTCTCCTTCA [XGTACX_site5899]	8.9 ± 0.41
AGATGAGAGATATATACACACAATAATACCTATTTA [CACACA_site6542]	8.34 ± 0.59
ATTATTTTATGAGACATAAAAAAAAAAAAAAAAAAA [CACACA_negctrl_site1067]	8.09 ± 0.26
TTATATTTATTTAATGAACACACGATATATTATTTT [CACACA_site1601]	8.33 ± 0.44
TTTTAAAAAAGAAAAAAAAAGGATCAGAGAAATATT [GTGCAC_negctrl_site79]	8.59 ± 0.56
TTGTAGATATTTATATGTACGAATTTATAAATATAG [XGTACX_site3611]	8.38 ± 0.28
AAATGTTAATTAAATGCATGTACAAAAGGAGCGAAT [TGCATGCA_site942]	9.75 ± 0.45
AAAAAAATTAATAATGTGCACTTTTTAGTATTTTTA [GTGCAC_site9744]	8.435 ± 0.035
TTATTTATCAAAAAATGTACAAAAATATATAAACAA [XGTACX_site940]	8.76 ± 0.44
TTTGTCAACCAAAATTGTACAAATGTATTCCCAATA [XGTACX_site1350]	8.36 ± 0.37
AAAAAAAAAAAAAAAGGTACACAAAACGGTATTATT [XGTACX_site7064]	8.64 ± 0.43
ATACATATTAATATGTGTACACATTTTTATTTTTTT [XGTACX_site930]	8.71 ± 0.3
AACTCATAGGAGTGTGCACACAAAAAATTAAAAAAA [CACACA_site8996]	9.03 ± 0.46
TTTTTTTTTTTTGTCACACATATGGAATATATCTAT [CACACA_site5899]	8.54 ± 0.54
TTTTTTTTTTTTTTTGCACACATTTTAATTATTTTT [CACACA_site341]	8.31 ± 0.48
CTCAAAAAATATGAACGTACAAAATAAGTAATGACA [XGTACX_site590]	8.91 ± 0.48
AACTTTAAACCCTGAACACACACAAATACACCCAAA [CACACA_site7971]	8.96 ± 0.6
ATAATCCACAAGCACACACACACACCCATATATATA [CACACA_site1268]	8.81 ± 0.35

Sequence	gcPBM binding intensity (ln)
TATATATATATATATATATATATATATGTATATATG [XGTACX_negctrl_site242]	9.99 ± 0.52
CACCAAAATATATGTACATATGATAAATGTGAATAT [GTGCAC_negctrl_site83]	8.99 ± 0.58
CTTTTCTATTTTTTCGTGCACTATAAATATTTTAAT	9.6 ± 0.23
TAACTTTTTTTTTTTTTTTTTTAACTTTTATGTAAT [GTGCAC_negctrl_site156]	8.07 ± 0.45
TTTTACAATATTTTGTGTACTTATATTATGAGCTTA [XGTACX_site3287]	8.68 ± 0.2
GTCTATATATTTTAGGTGCAACGTAAATGTAAAAAT	9.01 ± 0.36
AAAATTATCGTTATATGTACGCATCTTAATACGTAT [XGTACX_site4063]	8.335 ± 0.007
ATTATACAAATTGAGGTGCATGAAACAAAATATGAA	9.05 ± 0.28
AGCTTGTAACAGTTTACACACTAATATTTATAAATT [CACACA_site6024]	8.77 ± 0.47
ATATTTTTTTTTTTATGTACTTATTTATAATTATTT [XGTACX_site5279]	8.67 ± 0.37
CTTATAAGAATACTAGTGCACATAATTTAACGAAAA	9.02 ± 0.16
TATATTTATTTATATACACACATAATAAAAAATATA [CACACA_site6527]	8.37 ± 0.35
TACTTATTGTGATACTTATATTATTTTATGATTAAA [XGTACX_negctrl_site353]	8.36 ± 0.39
TATTAATGATAAAAAAGTACATTATTATATGATATT [XGTACX_site4235]	8.36 ± 0.34
TAAGTCATATAAATGTGTACATAAAAAAAAAAAATG [XGTACX_site1645]	8.67 ± 0.4
TTTTTTTTTTTTTTTTCACACATTGTACTTTTTTAT [CACACA_site5193]	8.48 ± 0.45
TCTATCAAATTTGAAGGTACACATTTGAGATAATTA [XGTACX_site3797]	8.46 ± 0.35
ATCATTTGCATACGCACACACACATAAAAAGAAAAA [CACACA_site355]	8.63 ± 0.42
AATAATAAATAAATGTGTACTTAAAAATATTATATT [XGTACX_site3005]	8.44 ± 0.33
CAAAGTATTATGATTACACACATGTGCTTTTTTCTT [CACACA_site163]	8.57 ± 0.42
TTGTATCATATATTATGTACATATTGATTTATTACC [XGTACX_site12]	8.42 ± 0.33
ATGTCCTATATTAGTACACACATGAAAATATAAATA [CACACA_site7497]	8.46 ± 0.32
AATATAAAAAAAAACAAAAAAAAAATTTTGGTTCAC [CACACA_negctrl_site1290]	8.21 ± 0.53

Sequence	gcPBM binding intensity (ln)
AACCATACACAAATAAACATAGACACAGATACCTCC [CACACA_negctrl_site598]	8.63 ± 0.53
TCCTATGATGATGATAGTACATATGAGTTCAAAAAA [XGTACX_site273]	8.4 ± 0.33
ACAATTAATCAAACAAGTACAAAATATATCCCTATT [XGTACX_site6223]	8.49 ± 0.32
TTATTGTTATTTGTTTGTACATAATATAATATATTA [XGTACX_site6477]	8.61 ± 0.33
AATATGTGTATAGATAGTACACATGCTGATAATATA [XGTACX_site5941]	8.59 ± 0.33
AAAATTTTGGAACGTGCACACATATGTAATATATAT [CACACA_site9004]	9.41 ± 0.43
TTTTTAAAATATTTAACACACAATTATAATGCATAA [CACACA_site3932]	8.63 ± 0.45
AGTAGTCTGGAGAAATGTACACAGTATCTGGTAGCT [XGTACX_site4871]	8.45 ± 0.34
ATATTACTTCCTAAGTGTACAAGTAAGGAGAAAAAA [XGTACX_site3921]	8.74 ± 0.35
GATAAAATGGATGGATGTACATTATTTCCATATAAT [XGTACX_site7781]	8.55 ± 0.5
AAAAAAAAAAAAAACACACACACAAAATAAACAAAC [CACACA_site2720]	8.72 ± 0.63
AGATGTTTTTATATATGTACTTAAATACACAAATAT [XGTACX_site8250]	8.46 ± 0.2
TTATCGGTATAATATAGTACATATAGATATATAATA [XGTACX_site1440]	8.41 ± 0.34
TGATAATTTTTTACATGTACAAGTTTGTTTTTGCAT [XGTACX_site125]	8.89 ± 0.35
AATTTCTATTTTGTGAGTACATACTCCTATTATATA [XGTACX_site3210]	8.78 ± 0.26
TAAAAGTTAATATAAACACACAAAAATTAATAAATA [CACACA_site6316]	8.62 ± 0.27
ATAATGGAGAAATAAGCATGCATTATATTATAAAAA [TGCATGCA_site325]	9.31 ± 0.56
TGAATATTTCTATATACACACATATAAATATAAATA [CACACA_site7593]	8.26 ± 0.36
AAAAAAAAAAAAATGTAATTTTTTAATTATTTATAT [GTGCAC_negctrl_site436]	7.96 ± 0.43
CATATATTTTTGTATAGTACTTTTTTTATTCGTTTT [XGTACX_site1860]	8.71 ± 0.45
TATTTTATCATTTGCACACGCACACCGACATAAAAA [CACACA_site4348]	8.87 ± 0.25
